According to PMC5540273 (PLoS ONE, 2017):
For part of these data: Most of the strong results are listed elsewhere, so they are rarer here than in the full data. Only a part is listed here, and it is no random draw.

These compounds were tested on PRKCI. Conditions: concentration: 1 μM,replicates: in singlicate; n = 1.
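Note: KINOMEscan kinase panel screen.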

SMILES	%Inh [%]
O=C1NC(=O)C(c2ccc(Cl)cc2)=C1Nc1ccc(O)c(Cl)c1 [SB-405367]	28
O=C1NC(=O)C(c2ccc(Cl)cc2)=C1Nc1ccccc1 [SB-317661]	0
COc1cccc(C2=C(Nc3ccc(SC)cc3)C(=O)NC2=O)c1 [SB-331032]	4
Cc1ccc(C)c(Oc2nccc(-c3c(-c4ccc(F)cc4)ncn3C3CCNCC3)n2)c1.O=C(O)C(F)(F)F.O=C(O)C(F)(F)F.O=C(O)C(F)(F)F [SB-284852]	46
O=C1NC(=O)C(c2ccccc2Cl)=C1Nc1cccc(C(=O)O)c1 [SB-390526]	0
O=C1NC(=O)C(c2ccccc2)=C1Nc1cc(Cl)c(O)c(Cl)c1 [SB-390530]	0
CSc1ccc(NC2=C(c3cccc(Cl)c3)C(=O)NC2=O)cc1 [SB-341528]	10
O=C1NC(=O)c2c1c(-c1ccccc1)cc1[nH]c3ccc(O)cc3c21	0
Cc1cc(C)cc(Oc2nccc(-c3c(-c4ccc(F)cc4)ncn3C3CCNCC3)n2)c1.O=C(O)C(F)(F)F.O=C(O)C(F)(F)F.O=C(O)C(F)(F)F [SB-284851]	100
COc1ccc(C2=C(Nc3cccc(Cl)c3)C(=O)NC2=O)cc1 [SB-326892]	16
O=C(O)c1ccc(-c2nc(-c3ccc(F)cc3)c(-c3ccncc3)[nH]2)cc1 [SB-202620]	41
O=C1NC(=O)C(c2ccccc2)=C1Nc1ccc(Cl)c(C(=O)O)c1 [SB-390532]	13
O=C1NC(=O)C(c2ccc(Cl)cc2)=C1Nc1cccc(C(=O)O)c1 [SB-360737]	1
O=C1NC(=O)C(c2ccccc2Cl)=C1Nc1ccccc1 [SB-376715]	23
CS(=O)(=O)c1ccccc1-c1nc(-c2ccc(F)cc2)c(-c2ccncc2)[nH]1 [SB-213663]	29
O=C1NC(=O)C(c2ccc(Cl)cc2)=C1Nc1cccc(O)c1 [SB-333613]	28

What follows are compounds tested on PRKCQ. Conditions: concentration: 1 μM,replicates: in singlicate; n = 1.

SMILES	%Inh [%]
O=C1NC(=O)C(c2ccc(Cl)cc2)=C1Nc1ccc(O)c(Cl)c1 [SB-405367]	0
O=C1NC(=O)C(c2ccc(Cl)cc2)=C1Nc1ccccc1 [SB-317661]	0
COc1cccc(C2=C(Nc3ccc(SC)cc3)C(=O)NC2=O)c1 [SB-331032]	0
Cc1ccc(C)c(Oc2nccc(-c3c(-c4ccc(F)cc4)ncn3C3CCNCC3)n2)c1.O=C(O)C(F)(F)F.O=C(O)C(F)(F)F.O=C(O)C(F)(F)F [SB-284852]	30
O=C1NC(=O)C(c2ccccc2Cl)=C1Nc1cccc(C(=O)O)c1 [SB-390526]	0
O=C1NC(=O)C(c2ccccc2)=C1Nc1cc(Cl)c(O)c(Cl)c1 [SB-390530]	40
CSc1ccc(NC2=C(c3cccc(Cl)c3)C(=O)NC2=O)cc1 [SB-341528]	0
O=C1NC(=O)c2c1c(-c1ccccc1)cc1[nH]c3ccc(O)cc3c21	72
Cc1cc(C)cc(Oc2nccc(-c3c(-c4ccc(F)cc4)ncn3C3CCNCC3)n2)c1.O=C(O)C(F)(F)F.O=C(O)C(F)(F)F.O=C(O)C(F)(F)F [SB-284851]	0
COc1ccc(C2=C(Nc3cccc(Cl)c3)C(=O)NC2=O)cc1 [SB-326892]	29
O=C(O)c1ccc(-c2nc(-c3ccc(F)cc3)c(-c3ccncc3)[nH]2)cc1 [SB-202620]	0
O=C1NC(=O)C(c2ccccc2)=C1Nc1ccc(Cl)c(C(=O)O)c1 [SB-390532]	0
O=C1NC(=O)C(c2ccc(Cl)cc2)=C1Nc1cccc(C(=O)O)c1 [SB-360737]	0
O=C1NC(=O)C(c2ccccc2Cl)=C1Nc1ccccc1 [SB-376715]	5
CS(=O)(=O)c1ccccc1-c1nc(-c2ccc(F)cc2)c(-c2ccncc2)[nH]1 [SB-213663]	0
O=C1NC(=O)C(c2ccc(Cl)cc2)=C1Nc1cccc(O)c1 [SB-333613]	0

What follows are compounds tested on PRKD1. Conditions: concentration: 1 μM,replicates: in singlicate; n = 1.

SMILES	%Inh [%]
O=C1NC(=O)C(c2ccc(Cl)cc2)=C1Nc1ccc(O)c(Cl)c1 [SB-405367]	4
O=C1NC(=O)C(c2ccc(Cl)cc2)=C1Nc1ccccc1 [SB-317661]	39
COc1cccc(C2=C(Nc3ccc(SC)cc3)C(=O)NC2=O)c1 [SB-331032]	0
Cc1ccc(C)c(Oc2nccc(-c3c(-c4ccc(F)cc4)ncn3C3CCNCC3)n2)c1.O=C(O)C(F)(F)F.O=C(O)C(F)(F)F.O=C(O)C(F)(F)F [SB-284852]	7
O=C1NC(=O)C(c2ccccc2Cl)=C1Nc1cccc(C(=O)O)c1 [SB-390526]	0
O=C1NC(=O)C(c2ccccc2)=C1Nc1cc(Cl)c(O)c(Cl)c1 [SB-390530]	8
CSc1ccc(NC2=C(c3cccc(Cl)c3)C(=O)NC2=O)cc1 [SB-341528]	0
O=C1NC(=O)c2c1c(-c1ccccc1)cc1[nH]c3ccc(O)cc3c21	0
Cc1cc(C)cc(Oc2nccc(-c3c(-c4ccc(F)cc4)ncn3C3CCNCC3)n2)c1.O=C(O)C(F)(F)F.O=C(O)C(F)(F)F.O=C(O)C(F)(F)F [SB-284851]	0
COc1ccc(C2=C(Nc3cccc(Cl)c3)C(=O)NC2=O)cc1 [SB-326892]	0
O=C(O)c1ccc(-c2nc(-c3ccc(F)cc3)c(-c3ccncc3)[nH]2)cc1 [SB-202620]	0
O=C1NC(=O)C(c2ccccc2)=C1Nc1ccc(Cl)c(C(=O)O)c1 [SB-390532]	0
O=C1NC(=O)C(c2ccc(Cl)cc2)=C1Nc1cccc(C(=O)O)c1 [SB-360737]	0
O=C1NC(=O)C(c2ccccc2Cl)=C1Nc1ccccc1 [SB-376715]	0
CS(=O)(=O)c1ccccc1-c1nc(-c2ccc(F)cc2)c(-c2ccncc2)[nH]1 [SB-213663]	12
O=C1NC(=O)C(c2ccc(Cl)cc2)=C1Nc1cccc(O)c1 [SB-333613]	0
